According to PubChem BioAssay AID1468 (National Center for Advancing Translational Sciences (NCATS), 2008):
The whole screen tested about 280,000 compounds, of which about 1,100 (0.39%) were called active. Inconclusive means that the source gave no clear call. Such entries were picked first, then a sample of the others. Calls come from the whole dose curve; as a rule, active = well fitted inhibition curve with a large enough effect; inconclusive = small, poorly fitted or top-dose-only effect, or effect the other way; inactive = flat fitted curve, though single readings scatter. Potencies of inconclusive entries are left out as doubtful fits.

target: Microtubule-associated protein tau (Homo sapiens) (UniProt P10636); assay: qHTS for Inhibitors of Tau Fibril Formation, Fluorescence Polarization; conditions: K18 P301L tau heparin fibrillization, Alexa594 FP, 6 h; series mostly up to 57.7 µM; activity, negative = inhibition: at the top concentration; note: nearly all actives have a fitted effect of over 55% in size
Method in brief: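 Compound effects on tau fibrillization are measured by Alexa 594 fluorescence polarization (ex 555, em 632 nm). K18 P301L tau is used at 15 uM with 0.24 uM labeled tracer, and 20 uM heparin induces aggregation over 6 hr at 37 C.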
% is set by controls: 0 for no effect and ±100 for the full control effect; potency is the fitted concentration of half-maximal effect; tags give direction and shape of the fitted curve.

Chain of UniProt P10636 (P10636 whole entry, looked up): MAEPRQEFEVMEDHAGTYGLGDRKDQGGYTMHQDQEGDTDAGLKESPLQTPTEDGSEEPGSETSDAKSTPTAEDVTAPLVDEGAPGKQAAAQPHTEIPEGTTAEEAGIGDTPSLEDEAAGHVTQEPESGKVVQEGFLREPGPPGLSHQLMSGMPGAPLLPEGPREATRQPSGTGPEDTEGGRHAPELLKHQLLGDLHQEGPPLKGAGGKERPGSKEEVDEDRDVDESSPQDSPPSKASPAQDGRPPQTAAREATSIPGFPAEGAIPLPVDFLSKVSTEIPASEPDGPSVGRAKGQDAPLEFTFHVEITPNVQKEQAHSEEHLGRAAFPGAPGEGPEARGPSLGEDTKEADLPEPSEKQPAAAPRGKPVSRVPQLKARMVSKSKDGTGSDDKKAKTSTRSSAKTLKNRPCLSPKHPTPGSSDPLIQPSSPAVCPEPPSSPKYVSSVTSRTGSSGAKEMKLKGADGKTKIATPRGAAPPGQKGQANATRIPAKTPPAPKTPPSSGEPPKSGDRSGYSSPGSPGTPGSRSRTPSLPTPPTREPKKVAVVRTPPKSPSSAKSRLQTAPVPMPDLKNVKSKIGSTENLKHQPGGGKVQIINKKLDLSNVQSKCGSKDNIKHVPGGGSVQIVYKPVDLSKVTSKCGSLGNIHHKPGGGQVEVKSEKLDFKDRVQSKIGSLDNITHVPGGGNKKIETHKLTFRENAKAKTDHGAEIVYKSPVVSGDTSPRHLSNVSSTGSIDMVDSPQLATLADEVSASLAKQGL

| Structure (SMILES) | Potency | activity, negative = inhibition |
| --- | --- | --- |
| CSc1oc(-c2cccs2)nc1S(=O)(=O)c1ccc(Br)cc1 | inconclusive [inhibitor, partial curve, poor fit] | – |
| CC(C)Cc1ccc(C(C)C(=O)Nc2ccc(O)cc2)cc1 (stereo not drawn) | inconclusive [activator, partial curve] | – |
| O=C(CSc1n[nH]c(-c2cccnc2)n1)Nc1ccccc1 | inconclusive [inhibitor, single point] | – |
| CCC1CN(C(=O)N2CCC(C(=O)N3CCN(c4ccccc4F)CC3)CC2)c2ccccc2O1 (stereo not drawn) | – | inactive: 10.5% |
| COc1cc(/C=N/NC(=O)c2ccc(-c3ccccc3)cc2)cc(OC)c1OC | – | inactive: -16.7% |
| Cc1nnc(N/N=C/c2cc(C)n(-c3ccc(F)cc3)c2C)n1N | inconclusive [inhibitor, single point] | – |
| O=C(COc1ccc(F)cc1)NCc1ccc2c(c1)CCN2C(=O)c1ccccc1 | – | inactive: 9.25% |
| C=CC(C)N1C(=O)S/C(=C\c2ccc(N3CCOCC3)cc2C)C1=O (stereo not drawn) | inconclusive [activator, partial curve] | – |
| CC(=O)Oc1c(C)cc(Cl)cc1C(=O)Nc1ccc([N+](=O)[O-])cc1Cl | – | inactive: 0.928% |
| Cc1cnc(NC(=O)Cc2c[nH]c3ccccc23)s1 | inconclusive [inhibitor, full curve, poor fit] | – |
| COc1ccc(CC(=O)N2CCc3cc(OC)c(OC)cc3C2COc2ccc3c(C)cc(=O)oc3c2)cc1OC (stereo not drawn) | – | inactive: 2.36% |
| CC(C)CCCC(C)C1CCC2C3CC=C4CC(O)CCC4(C)C3CCC12C (stereo not drawn) | – | inactive: 0.0238% |
| COc1cccc(/C=C2\N=C(SC)SC2=O)c1OC | inconclusive [inhibitor, partial curve, poor fit] | – |
| CN=C(c1ccco1)n1c(=S)nc(-c2ccco2)n(C)c1=S | inconclusive [inhibitor, single point] | – |
| COc1ccccc1Nc1nc(NCCC(C)C)nc(N)c1[N+](=O)[O-] | inconclusive [inhibitor, partial curve, poor fit] | – |
| Cc1cc(C)n(-c2nc(SCCN(C)C)c3c4c(sc3n2)CCCC4)n1 | – | inactive: -6.31% |
| CCOC(=O)c1sc(Nc2ccc(OCC)cc2)nc1C | inconclusive [activator, full curve, poor fit] | – |
| O=S(=O)(c1ccc(NC(=S)NCCc2ccccc2)cc1)N1CCOCC1 | inconclusive [inhibitor, single point] | – |
| CCOC(=O)c1cccc(NC(=O)NC(C)c2c(-n3cccc3)sc3c2CCN(C)C3)c1 (stereo not drawn) | inconclusive [inhibitor, single point] | – |
| COC(=O)CC1c2ccccc2C=C(/C=C/c2ccc3c(c2)OCO3)N1C(=O)OC (stereo not drawn) | – | inactive: 4.08% [at 11.6 µM] |
| CC(C)CNC(=O)COC(=O)c1c2c(nc3ccccc13)/C(=C/c1cccs1)CC2 | – | inactive: -6.88% |
| O=C(Cn1nc(-c2ccc(Cl)cc2)c2ccccc2c1=O)Nc1cccc(C(F)(F)F)c1 | inconclusive [inhibitor, partial curve] | – |
| Cn1c(N)c(C(=O)COC(=O)COc2ccccc2C#N)c(=O)n(C)c1=O | – | inactive: -4.34% |

| Structure (SMILES) | Potency | activity, negative = inhibition |
| --- | --- | --- |
| c1ccc(-n2nnc3c(N4CCOCC4)ncnc32)cc1 | – | inactive: -3.34% |
| Cc1ccc(Cl)cc1N1CCN(C(=O)c2ccc(CS(=O)c3ccccc3)o2)CC1 (stereo not drawn) | – | inactive: -0.662% |
| COc1c(Cl)cc(Cl)cc1/C=C/C(=O)c1ccc(NC(=O)c2cccs2)cc1 | inconclusive [inhibitor, partial curve, poor fit] | – |
| Cc1ccc(NC(=O)CCC(=O)NNC(=S)Nc2ccccc2)c(C)c1 | – | inactive: -4.27% [at 2.34 µM] |
| Cc1[nH]nc(-c2ccc(O)cc2O)c1-c1nc2ccccc2s1 | inconclusive [activator, single point] | – |
| COc1cc(C(=O)O)nc2ccc([N+](=O)[O-])cc12 | – | inactive: 5.93% |
| CCn1c(C(=O)NCc2ccccc2Br)cc2oc3ccccc3c21 | inconclusive [inhibitor, single point] | – |
| CCOC(=O)C1CCCN(C2CC(=O)N(c3ccc(N4C(=O)CC(N5CCCC(C(=O)OCC)C5)C4=O)cc3)C2=O)C1 (stereo not drawn) | – | inactive: 2.7% |
| Cc1ccccc1Cn1ccc(-c2ccc(Cl)cc2)c(C#N)c1=O | inconclusive [inhibitor, single point] | – |
| Cc1ccc(C(=O)N/C(=C\c2ccc(Br)cc2)c2nc(=S)[nH][nH]2)cc1 | inconclusive [inhibitor, partial curve] | – |
| CC(C)CCn1c(Oc2ccccc2F)nc2c1c(=O)n(C)c(=O)n2C | inconclusive [inhibitor, partial curve, poor fit] | – |
| CCCOc1cccc(C2c3c(-c4ccccc4O)n[nH]c3C(=O)N2Cc2ccco2)c1 (stereo not drawn) | inconclusive [inhibitor, single point] | – |
| Cc1cc(S(=O)(=O)N2CCN(c3ccccc3O)CC2)c(C)s1 | inconclusive [activator, partial curve] | – |
| C/C=C\C(=O)Nc1cccc(C2=NOC3(C2)C[C@@H](C(N)=O)N(C(=O)C2(C)CC2)C3)c1 (stereo partly drawn) | – | inactive: 0.0479% |
| CCOc1ccc(S(=O)(=O)Nc2cccc(OC)c2)c2cccnc12 | inconclusive [inhibitor, single point] | – |
| O=C1CS(=O)(=O)C2(C(=O)N(Cc3ccccc3)c3ccccc32)N1c1ccc(F)c(Cl)c1 (stereo not drawn) | inconclusive [inhibitor, partial curve] | – |
| Clc1ccccc1C1=Nn2c(nnc2-c2ccco2)SC1 | inconclusive [inhibitor, partial curve, poor fit] | – |
| COc1ccc(NS(=O)(=O)c2ccc3[nH]c(=O)ccc3c2)cc1OC | – | inactive: -17.8% |
| COc1cccc(/C=N/NC(=O)CN(CCc2ccccc2)S(=O)(=O)c2ccc(NC(C)=O)cc2)c1 | inconclusive [inhibitor, partial curve] | – |
| O=C(Nc1cccc(Cl)c1)c1cc(-c2ccc3c(c2)OCO3)on1 | inconclusive [inhibitor, single point] | – |
| CNC1(c2nnnn2-c2ccccc2C)CCOC(C)(C)C1 (stereo not drawn) | – | inactive: -5.13% |
| O=C(CCc1nnc(-c2ccc(-c3ccccc3)cc2)o1)NCCc1ccccn1 | inconclusive [inhibitor, single point] | – |
| O=C(Nc1nccs1)c1sc2cc(Cl)ccc2c1Cl | inconclusive [inhibitor, single point] | – |

| Structure (SMILES) | Potency | activity, negative = inhibition |
| --- | --- | --- |
| OC(CNCc1ccccc1)Cn1ccc2ccccc21 (stereo not drawn) | – | inactive: -4.06% |
| COc1ccccc1-c1cncnc1NCc1cccnc1 | – | inactive: 2.11% |
| COc1ccccc1NC1=C(Cl)C(=O)OC1OC(=O)c1ccco1 (stereo not drawn) | inconclusive [inhibitor, single point] | – |
| NS(=O)(=O)c1ccc(NC(=O)COc2ccc(S(=O)(=O)NC3CCCCC3)cc2)cc1 | inconclusive [inhibitor, single point] | – |
| Cc1cc(NC(=O)c2cc(Cl)ccc2Cl)ccc1-c1cc2ccccc2oc1=O | inconclusive [inhibitor, single point] | – |
| CCOC(=O)C1=C(C)N=C2SCCC(=O)N2C1c1ccc(OCc2ccccc2)c(OC)c1 (stereo not drawn) | – | inactive: 7.04% |
| COc1ccc(C2=CC(=O)C=CC2=O)cc1 | active: 35.5 µM | – |
| Cc1cc2cc(CNC(=O)c3ccco3)ccc2n1C | – | inactive: -3.46% |
| Cc1onc(-c2ccccc2)c1C(=O)N/N=C/c1c[nH]c2ccccc12 | inconclusive [activator, full curve] | – |
| O=c1[nH]c2ccc(S(=O)(=O)N3CCN(c4ccccc4F)CC3)cc2s1 | inconclusive [inhibitor, partial curve] | – |
| Cc1cccc(NC(=O)Cn2c(/C=C/c3ccccc3)nc3ccccc32)c1 | inconclusive [inhibitor, partial curve] | – |
| Nc1cc2nn(-c3ccccc3)nc2cc1Cl | inconclusive [inhibitor, full curve, poor fit] | – |
| CS(=O)(=O)N1CCc2cc(-c3csc(NC(=O)C(c4ccccc4)c4ccccc4)n3)ccc21 | inconclusive [inhibitor, single point] | – |
| CCN(CCO)c1ccc(NC(=S)Nc2cccc(S(=O)(=O)N(C)C)c2)cc1 | inconclusive [inhibitor, partial curve] | – |
| CCOC(=O)c1sc2nc(CC(=O)OC)nc(NCC(=O)OC)c2c1C | inconclusive [inhibitor, full curve, poor fit] | – |
| O=C1CC(N(CCc2ccccc2)C(=S)Nc2ccccc2)C(=O)N1c1ccccc1 (stereo not drawn) | inconclusive [inhibitor, partial curve] | – |
| Nc1cccc(-n2cccc2)c1 | inconclusive [inhibitor, single point] | – |
| COc1ccc(-c2ccc(C#N)c(SCC(=O)NC3CC3)n2)cc1OC | inconclusive [inhibitor, single point] | – |
| O=C(c1cccs1)N1N=C(c2ccc(O)cc2)CC1c1ccccc1 (stereo not drawn) | inconclusive [inhibitor, single point] | – |
| Cc1ccc(N(C(=O)Cc2c[nH]c3ccccc23)C(C(=O)NC2CCCCC2)c2ccco2)cc1 (stereo not drawn) | inconclusive [activator, partial curve] | – |
| C=CCNc1nc(Nc2ccc(-c3nc4ccccc4o3)cc2)nc(N2CCOCC2)n1 | inconclusive [inhibitor, partial curve] | – |
| CCOC(=O)c1c(C)[nH]c(C2=NNC(=Nc3ccccc3)SC2)c1C | inconclusive [inhibitor, full curve] | – |
